{"source": "the supplement of paper PMC11417369", "note": "± gives the standard deviation of the averaged measurements. The list shows a part of the results.", "data": [{"system": "PfAP2-G AP2 domain (GST-tagged)", "assay": "gcPBM binding intensity (ln(normalized median fluorescence intensity)); higher = stronger DNA binding", "summary_of_the_method": "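After 1 h on an Agilent 4 × 180k array of primer-extended double-stranded 36-bp intergenic genomic probes and negative controls, bound GST-tagged P. falciparum DNA-binding domains were detected with Alexa488 anti-GST antibody and scanned at 488 nm. The domains had been expressed in E. coli, and binding took place in 1× PBS with 1% milk, 0.2 mg/ml BSA, 0.5% salmon testes DNA and 0.03% Triton X-100. Binding intensity is the highest Masliner-normalised natural-log median intensity across replicate spots of either probe orientation.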", "values": [{"sequence": "ATACATATATATATATGTACACATAAACATGAGTGA [XGTACX_site3200]", "gcPBM binding intensity (ln)": "11.4 ± 0.76"}, {"sequence": "TAAATTTGTGGGATTTCACACAGGTTTATTTACATT [CACACA_site5455]", "gcPBM binding intensity (ln)": "9.81 ± 0.14"}, {"sequence": "CTCTTGTCATTTTGCACACACACATGTATAGGTTAT [CACACA_site3057]", "gcPBM binding intensity (ln)": "10.5 ± 0.24"}, {"sequence": "ATGTAGGTTAATTATTGTACGTAGGGGGTGTATATT [XGTACX_site3973]", "gcPBM binding intensity (ln)": "11.8 ± 1.2"}, {"sequence": "TTCAGAGAATAAAAATGTACATATAATATTTTAAAA [XGTACX_site577]", "gcPBM binding intensity (ln)": "11.2 ± 0.65"}, {"sequence": "TTTCTAATTTATATCACACACATATATTTATAGTAA [CACACA_site6280]", "gcPBM binding intensity (ln)": "9.96 ± 0.24"}, {"sequence": "GTTTACTAATATTGCACACGAATATGAAAAAGAGAA [CACACA_site2897]", "gcPBM binding intensity (ln)": "10.2 ± 0.25"}, {"sequence": "GTGTTAACTATTATGAGTACTTATGTATTAATTCAT [XGTACX_site7767]", "gcPBM binding intensity (ln)": "11.4 ± 0.88"}, {"sequence": "TTGCTTATTAAATGGGGTACATTATATATATATATA [XGTACX_site2515]", "gcPBM binding intensity (ln)": "11.6 ± 0.84"}, {"sequence": "TATAATAAAATATGTACACACATACAGACATATATA [CACACA_site6693]", "gcPBM binding intensity (ln)": "11.5 ± 1"}, {"sequence": "ATATATATATAATGTGTACACACATATGTATTTATA [CACACA_site8170]", "gcPBM binding intensity (ln)": "11.7 ± 0.67"}, {"sequence": "TAATTAAGATGATAAAAATTGAAAAAACAATTTTAA [CACACA_negctrl_site658]", "gcPBM binding intensity (ln)": "9.445 ± 0.049"}, {"sequence": "ATAATATCTTCTTTTTTTTTTTTTTTTTTTTTTTTT [CACACA_negctrl_site1005]", "gcPBM binding intensity (ln)": "10.9 ± 0.56"}, {"sequence": "AAATGATGCATTTGTCATTAAAATTGTGAAATATTA [CACACA_negctrl_site231]", "gcPBM binding intensity (ln)": "9.66 ± 0.28"}, {"sequence": "AAAAAAAAAAAAAAAAGTACATATATATATAATTAT [XGTACX_site7836]", "gcPBM binding intensity (ln)": "11.7 ± 0.89"}, {"sequence": "AGAGTATATAAAGTAACACACAATAAAATAAAATAA [CACACA_site2328]", "gcPBM binding intensity (ln)": "9.925 ± 0.007"}, {"sequence": "CATATAGTATAAATTTGTACATAAATATATATATAT [XGTACX_site7477]", "gcPBM binding intensity (ln)": "10.9 ± 0.49"}, {"sequence": "TTTAAAAACAAATATTGTACAAATTAAAATATATCA [XGTACX_site7220]", "gcPBM binding intensity (ln)": "10.8 ± 0.43"}, {"sequence": "AGAGCATAATAAAACACACACATACATACAGATATA [CACACA_site4671]", "gcPBM binding intensity (ln)": "9.86 ± 0.11"}, {"sequence": "CACTAATATATATACAGTACATAATAAAGTATATAA [XGTACX_site6875]", "gcPBM binding intensity (ln)": "10.8 ± 0.53"}, {"sequence": "TGATGATATAAAAACACACACATATAATATAATACT [CACACA_site1208]", "gcPBM binding intensity (ln)": "9.92 ± 0.042"}, {"sequence": "TACATACACGGACACACACACATATATATATATATA [CACACA_site5883]", "gcPBM binding intensity (ln)": "11.3 ± 0.88"}, {"sequence": "TAATTTTATATTAAAAGTACATAATAAAAACTATAA [XGTACX_site8779]", "gcPBM binding intensity (ln)": "11.3 ± 0.94"}, {"sequence": "AAGAAATATATATATATATATATATATATATATGTA [TGCATGCA_negctrl_site442]", "gcPBM binding intensity (ln)": "9.67 ± 0.16"}, {"sequence": "AAAAAAAAAAAACATACACACAAATATATACATACA [CACACA_site4011]", "gcPBM binding intensity (ln)": "9.79 ± 0.085"}, {"sequence": "CTGTTTTACTTTAGTAGTACAATAAAAATATAAAAA [XGTACX_site2934]", "gcPBM binding intensity (ln)": "11.5 ± 1.1"}, {"sequence": "TATTACCCATATTATACACACATATATTATATATAT [CACACA_site1567]", "gcPBM binding intensity (ln)": "10.3 ± 0.2"}, {"sequence": "ATTAAATATGAGGGAACACACACATGATATATAAAT [CACACA_site8755]", "gcPBM binding intensity (ln)": "10.05 ± 0.078"}, {"sequence": "TTATATAAAGAATGTACACACAGAAATGCACCCACA [CACACA_site2282]", "gcPBM binding intensity (ln)": "11.5 ± 0.81"}, {"sequence": "ATGTATAAACAAAAGGGTACATATATATATATATAT [XGTACX_site2087]", "gcPBM binding intensity (ln)": "11.1 ± 0.81"}, {"sequence": "AGAAAAATTACAAAATGTACATAATGTGTTATTAAT [XGTACX_site7877]", "gcPBM binding intensity (ln)": "10.9 ± 0.47"}, {"sequence": "ATTAAGTACTAAAAAGTGCAGTTCGGTACTGTGCTT [GTGCAC_site9755]", "gcPBM binding intensity (ln)": "11 ± 0.63"}, {"sequence": "AATAAAAAACATGAAAGTACTTTAAAAAAGGTAATA [XGTACX_site1897]", "gcPBM binding intensity (ln)": "11.1 ± 0.35"}, {"sequence": "AAGTACATACATAAAACACACACATATATATATATA [CACACA_site8541]", "gcPBM binding intensity (ln)": "10.5 ± 0.35"}, {"sequence": "AATATATAAATCAATAGTACATATATATATATATAT [XGTACX_site3898]", "gcPBM binding intensity (ln)": "10.7 ± 0.53"}, {"sequence": "AAAATTAAATAAAAATGTACAGAAATATTATATGAA [XGTACX_site5695]", "gcPBM binding intensity (ln)": "11 ± 0.57"}, {"sequence": "ATATATTATATTAATTGTACATAAAAAAGAGAAAAA [XGTACX_site3366]", "gcPBM binding intensity (ln)": "11.1 ± 0.61"}, {"sequence": "TTATATTTATAAAGGTGTACCTTAAAATGATTTTAC [XGTACX_site3774]", "gcPBM binding intensity (ln)": "11.4 ± 0.88"}, {"sequence": "CCAAAAAATATATGTAGTACTACATTATTAAATATG [XGTACX_site5128]", "gcPBM binding intensity (ln)": "11.6 ± 0.83"}, {"sequence": "AAATTCAATTTGCGCTGTACATGAAGATATAAATTT [XGTACX_site4844]", "gcPBM binding intensity (ln)": "10.9 ± 0.38"}, {"sequence": "ATACCTGTTGTGTTACGTACATAATTTTAATGTTTG [XGTACX_site8181]", "gcPBM binding intensity (ln)": "11.5 ± 0.59"}, {"sequence": "TATAATATATTCACTCGTACATATTTAATAATATCT [XGTACX_site6209]", "gcPBM binding intensity (ln)": "10.9 ± 0.52"}, {"sequence": "ACAGTATATTAAAAAATACACACGTATTATATCTAC [CACACA_site2640]", "gcPBM binding intensity (ln)": "10.3 ± 0.26"}, {"sequence": "AAAAAAAACACGCGCACACACACACCCACAGACACA [CACACA_site5253]", "gcPBM binding intensity (ln)": "10.7 ± 0.39"}, {"sequence": "TATATATATAAATACACACACACACCCCAAAGCGTA [CACACA_site4211]", "gcPBM binding intensity (ln)": "10.4 ± 0.42"}, {"sequence": "TATTTTTTAAAAAATTATAAATAAAATTATATTACG [CACACA_negctrl_site324]", "gcPBM binding intensity (ln)": "9.71 ± 0.099"}, {"sequence": "TATATATATATAATATGTACATATATTAAGCATTTT [XGTACX_site4470]", "gcPBM binding intensity (ln)": "11.1 ± 0.61"}, {"sequence": "AAAAAAAAAAATTAAAGTACTAATTAAAATTATATG [XGTACX_site5289]", "gcPBM binding intensity (ln)": "10.9 ± 0.62"}, {"sequence": "TATTACACATATTATGTGCACATATATAATCAATAT", "gcPBM binding intensity (ln)": "10.5 ± 0.27"}, {"sequence": "ATTTTATTTTTGTGCACACTGATAAATTGAAAAGAG [CACACA_site2948]", "gcPBM binding intensity (ln)": "10.8 ± 0.57"}, {"sequence": "TTTTAATTAAATAAATGTACTCATTCTATTATTTAT [XGTACX_site3032]", "gcPBM binding intensity (ln)": "11.3 ± 0.75"}, {"sequence": "ATAAATTTTTTATGAACACACAAATACCCACGCTCA [CACACA_site2659]", "gcPBM binding intensity (ln)": "10.7 ± 0.4"}, {"sequence": "ATATTCTGATTTTAGATGCACTTCGTTAACAAAATA [GTGCAC_site9958]", "gcPBM binding intensity (ln)": "10.05 ± 0.078"}, {"sequence": "ATATATATATTTATATGTACATAATATAAAATTTCT [XGTACX_site3720]", "gcPBM binding intensity (ln)": "11.2 ± 0.76"}, {"sequence": "TATATAATATTCTACACACCAACAACAAACATATAT [CACACA_site567]", "gcPBM binding intensity (ln)": "10.3 ± 0.17"}, {"sequence": "TATCATATATTATATGCACACATGTTTTTCAAGAAT [CACACA_site1892]", "gcPBM binding intensity (ln)": "10.1 ± 0.2"}, {"sequence": "TTATATATATGTGTATGTACATATATATATATATAT [XGTACX_site1141]", "gcPBM binding intensity (ln)": "11.1 ± 0.62"}]}]}
